Test results from patent US20080234132A1, “Microcin B17 Analogs And Methods For Their Preparation And Use” (priority 2004, published 2008).
“Also recorded” adds a separate entry of the source. At least one structure is not confirmed: it was looked up by name or label, or the drawing left a doubt. *1 amine or outer side, *2 acyl side, *3 side chain or, on linkers, in order; H or OH if unused. Where a SMILES comes first, the peptide text is derived from it. [ ]: non-standard residue; d: D form. GlyΨ(Thz) = O=C(c1csc(CN[*:1])n1)[*:2]; X1 = O=C(c1ccc(CN[*:1])[nH]1)[*:2]; X3 = O=C(c1coc(CN[*:1])n1)[*:2]

How the values were obtained:
[1] = test system: Arabidopsis thaliana ecotype Columbia plants; assay: Effects on A. thaliana seedlings and plants; format: in vivo; conditions: for In vivo Plants, P (whole plants, expanded Arabidopsis leaves): Table 5-C
Experimental: (§1) The microcin derivatives were tested for efficacy in planta against Arabidopsis thaliana ecotype Columbia according to known methods (see Wall et al., 2004). Seeds were germinated on sterile media containing the appropriate peptide and the effects were observed over a three week period. […] In […] seeds, such as A. thaliana, during imbibition the quiescent seed rapidly resumes metabolic and respiratory activity. One of the first steps, as part of this process, is the initiation of mitochondrial DNA synthesis which requires DNA gyrase and which may explain the exquisite sensitivity of the germinating seeds to Peptides 1 and 2.
The leaf tissue initially turned yellow, followed by rapid necrosis of the tissue (see FIG. 32). […] The high hydrophility of Peptide 1 may preferentially allow the compound to readily diffuse through the leaf cuticle and epidermis to the mesophyll and phloem below.
The heterocyclic compounds were also spotted onto the leaves of 4 week old, tissue culture grown Arabidopsis thaliana ecotype Columbia plants (see FIG. 34, panels A-1). […] The browning and necrosis diffused through the full thickness of the leaf over the next 60 minutes (see FIG. 34, panel F) and spread towards the meristem (see FIG. 34, panels E, F, H). Complete necrosis of the meristem and newly emerged leaves, where organellar replication takes place, was complete within 24 hours (see FIG. 34, panel F).

[2] = test system: A. thaliana ecotype Columbia seeds; assay: Seed germination of A. thaliana; format: in vivo, Arabidopsis thaliana
[3] = test system: Arabidopsis thaliana ecotype Columbia seeds; assay: Seed germination, Arabidopsis thaliana; format: in vivo; conditions: three week period
Description: Germination begins when the dormant dry seed begins to take up water (imbibition from the surface sterilization process). Primary roots emerge while the seed is in the culture media. Subsequently the hypocotyls emerge and elongate to pull the cotyledons above the culture media surface. After straightening up, the cotyledons arrange into an horizontal position, as shown in the Figure, and, then spread apart in order to expose the first true leaves and the apical meristem (growing tip).
as §1

E. coli MG1655 = assay: Halo assay, wild-type E. coli MG1655; format: cell-based
[4] = biological target: DNA gyrase MG1655 wild type A2B2 (Escherichia coli, UniProt P0AES4+P0AES6); format: biochemical, E. coli; conditions: for Fitted parameters (for Equation 1) a / Fitted parameters (for Equation 1) b / Fitted parameters (for Equation 1) yo: DNA-dependent ATPase, wild type A2B2 51 nM; for ATPase: Table 5-B, A2B2 + DNA dependent
[5] = test system: E. coli MLW751R mutant (Trp751→Arg mutation in the DNA gyrase B subunit); assay: Haloassay, MccB17-resistant mutant E. coli MLW751R; format: cell-based
E. coli DH5α [6] = assay: Haloassay, E. coli DH5α; format: cell-based; conditions: FIG. 19
[7] = test system: wheatgerm topoisomerase I; assay: Wheatgerm topoisomerase I-mediated relaxation assay; format: biochemical; conditions: at the concentrations tested
[8] = biological target: E. coli DNA gyrase A2B2, wild type (Escherichia coli, UniProt P0AES4+P0AES6); assay: DNA gyrase relaxation assay; format: biochemical
E. coli DH5α [9] = assay: In vivo haloassay, E. coli DH5α; format: cell-based; conditions: 10% DMSO, 37° C. overnight
[10] = biological target: DNA gyrase subunit B2 enzyme (Escherichia coli, UniProt P0AES6); assay: DNA-independent ATPase assay, subunit B2 enzyme; format: biochemical, E. coli; conditions: B2 150 nM, no DNA
[11] = test system: E. coli MLW751R (W751R DNA gyrase B subunit); assay: Halo assay, MccB17-resistant mutant MLW751R; format: cell-based
DNA gyrase A2B2 = DNA gyrase A2B2 (Escherichia coli, UniProt P0AES4+P0AES6); format: biochemical, E. coli; conditions: A2B2 70 nM; MccB17 tested at 25 μM
[12] = biological target: T1, E. coli DNA gyrase A2B2, MG1655 wild type (Escherichia coli, UniProt P0AES4+P0AES6); format: biochemical
[13] = test system: E. coli DH5α import mutant; assay: Haloassay, E. coli DH5α import mutant; format: cell-based; conditions: MccB17-resistant import mutants
DNA gyrase = DNA gyrase (Escherichia coli, UniProt P0AES4+P0AES6); format: biochemical, E. coli
Human topoisomerase I = Human topoisomerase I (Homo sapiens, UniProt P11387); assay: Human topoisomerase I-mediated relaxation assay; format: biochemical; design: purchased TopoGEN Inc; conditions: at the concentrations tested
[14] = biological target: T1, E. coli DNA gyrase A2B2, MG1655 wild type; assay: DNA gyrase supercoiling assay, wild type enzyme; format: biochemical
[15] = biological target: DNA gyrase W751R mutant A2B2 (Escherichia coli, UniProt P0AES4+P0AES6, W751R); format: biochemical, E. coli; conditions: W751R enzyme 106 nM
topoisomerase I = assay: Topoisomerase I relaxation reaction within the unwinding assay; format: biochemical, human or wheat germ; conditions: 100 μM, negatively supercoiled DNA as substrate
HT-29 cells = assay: MTT cell viability assay, HT-29; format: cell-based, human; conditions: cell reads on: Active
HeLa cells = assay: MTT cell viability assay, HeLa; format: cell-based, human; conditions: cell reads on: Active
E. coli [16] = assay: In vivo E. coli (Table 5-C summary of haloassays); format: cell-based; conditions: number = not active up to this concentration
E. coli [17] = assay: In vivo E. coli activity (Table 5-C); format: cell-based; conditions: cell reads on: Active
Experimental: In vivo activity was tested using the bioassay developed by Sinha Roy, 1999, with some modifications. The Microcin-sensitive E. coli DH5α was used as the indicator strain. Lawns of cells were prepared by spreading 100 μL of a 10 mL LB culture grown at 37° C. overnight mixed with 3 mL of LSS, on LB+agar (10 g/L) plates. […] The plates were incubated at 37° C. overnight and halos of growth inhibition were qualitatively analyzed by determining their diameters (see FIG. 9).
Lawns of cells were prepared by spreading, on top of a LB+Agar plate, 3 ml of melted LSS medium (half-agar strength: 0.3 g Agar/50 ml LB) inoculated with 100 μl of a 10 ml LB overnight culture of E. coli cells grown at 37° C. Halo assays with MccB17 generally used a DH5α strain (Novagen) but the inventors used the standard E. coli strain (K12) because it is from this strain that the microcin B17-resistant mutant W751R was obtained. […] The plates were incubated at 37° C. overnight and growth inhibition was qualitatively analysed by measuring the diameter of each halo.
Haloassays were performed as described above.

Compound: CC[n+]1c(-c2ccccc2)c2cc(N)ccc2c2ccc(N)cc21 [Ethidium bromide, Ethidium Bromide]
- concentration producing a weak intercalative property (pBR322 DNA): 0.5 µM
- fold more efficient intercalative agent than CFX (pBR322 DNA): ~100 fold
- intercalative property (DNA unwinding) (pBR322 DNA): strong intercalative agent

Compound: CC(NC(=O)CNC(=O)CNC(=O)c1ccc(CNC(=O)C(C)NC(=O)CNC(=O)C(N)CCC(N)=O)[nH]1)C(=O)O (stereo not shown) [Peptide 1] (H-QGA[X1]GGA-OH; configuration not given here)
- effect of compound spotted on leaves ([1]; 20 μM): localised browning and necrosis
- effect on 4-week old plants transferred to media containing the compound ([1]; 100 μM Peptide 1, 200 μM Peptide 2): the leaves rapidly wilted
- time to complete necrosis of the meristem and newly emerged leaves ([1]; 100 μM spotted on leaves of 4 week old plants): ≤ 24 h
- germination of A. thaliana ecotype Columbia seeds ([2]; 36 hours, 100 μM Peptide 1, 5 μM CFX): germination is totally inhibited
- activity against seed germination ([2]; concentrations tested): able to inhibit germination
- Inhibition of seed germination [3]: able to inhibit germination of the seeds
- Average Diameter (mm) MG1655 WT (E. coli MG1655; 50 μM): 3 mm
- Average Diameter (mm) MG1655 WT (E. coli MG1655; 127 μM): 4 mm
- Average Diameter (mm) MG1655 WT (E. coli MG1655; 254 μM): 6 mm
- Average Diameter (mm) MG1655 WT (E. coli MG1655; 508 μM): 8 mm
- times less potent than MccB17 (diameter of killing zone) (E. coli MG1655; FIG. 21): 20 times
- Fitted parameters (for Equation 1) a [4]: 0.81 ± 0.06
- Fitted parameters (for Equation 1) b [4]: 0.027 ± 0.003
- Fitted parameters (for Equation 1) yo [4]: 0.21 ± 0.01
- Resistance of W751R mutant bacteria [5]: the W751R mutation confers resistance to Peptide 1
- In vivo activity (haloassay) (E. coli DH5α [6]): active in vivo
- Inhibition of wheatgerm topoisomerase I [7]: inhibited both enzymes at similar concentrations
- Inhibition of relaxation reaction at saturation [8]: totally inhibit
- concentration giving the same activity in the haloassay (E. coli DH5α [9]): 50 µM
- inhibition of the DNA-independent ATPase reaction of the B2 enzyme [10]: does not inhibit
- Average Diameter (mm) MLW751R Mutant ([11]; 50 μM): 0 mm
- Average Diameter (mm) MLW751R Mutant ([11]; 127 μM): 0 mm
- Average Diameter (mm) MLW751R Mutant ([11]; 254 μM): 0.5 mm
- Average Diameter (mm) MLW751R Mutant ([11]; 508 μM): 1.5 mm
- concentration at which the relaxation reaction is inhibited (DNA gyrase A2B2): 100 µM
- Inhibition of DNA-dependent ATP hydrolysis at saturation [12]: totally inhibit
- Activity against import mutant bacteria [13]: do not seem to be resistant to Peptide 1
- antagonism of quinolone cleavage complex (DNA gyrase): antagonizes quinolone cleavage complex
- stabilisation of the cleaved DNA-enzyme (cleavage) complex (DNA gyrase; Peptide 1 at 100 μM, [A2B2]=30 nM, up to 1 h): not stabilised; also recorded: Neither Peptide 1 nor Peptide 2 stabilise
- Inhibition of human topoisomerase I (Human topoisomerase I): inhibited both enzymes at similar concentrations
- Inhibition of supercoiling reaction at saturation [14]: totally inhibit
- inhibition of DNA-dependent ATPase of W751R mutant A2B2 [15]: Little or no inhibition
- Unwinding (pBR322 DNA; Table 4): Not an
- inhibition of the topoisomerase I relaxation reaction (topoisomerase I): weak inhibitor

Compound: C[C@H](NC(=O)CNC(=O)CNC(=O)c1coc(CNC(=O)CNC(=O)[C@H](C)NC(=O)[C@@H](N)CCC(N)=O)n1)C(=O)O [Peptide 4] (H-QAG[X3]GGA-OH)
- In vivo HT29 Cells activity (HT-29 cells): Not
- In vivo HeLa Cells activity (HeLa cells): Not

Compound: C[C@H](NC(=O)CNC(=O)CNC(=O)c1coc(CNC(=O)[C@H](C)NC(=O)CNC(=O)[C@@H](N)CCC(N)=O)n1)C(=O)O [Peptide 4] (H-QGA[X3]GGA-OH)
- In vivo Plants, P (whole plants, expanded Arabidopsis leaves) [1]: P > 300 μM
- In vivo E. coli (E. coli [16]): Not

Compound: CC(C)(C)OC(=O)NCc1nc(C(=O)O)cs1 [Peptide 5]
- In vivo Plants, P (whole plants, expanded Arabidopsis leaves) [1]: P > 75 μM
- ATPase [4]: Inhibits A2B2 +
- In vivo E. coli (E. coli [16]): (→100 μM)

Compound: C[C@H](NC(=O)CNC(=O)CNC(=O)c1csc(CNC(=O)CNC(=O)[C@H](C)NC(=O)[C@@H](N)CCC(N)=O)n1)C(=O)O [Peptide 5] (H-QAG[GlyΨ(Thz)]GGA-OH)
- In vivo E. coli activity, up to 1500 μM (E. coli [17]): Not

Compound: C[C@H](NC(=O)CNC(=O)CNC(=O)c1csc(CNC(=O)[C@H](C)NC(=O)CNC(=O)[C@@H](N)CCC(N)=O)n1)C(=O)O [Peptide 5] (H-QGA[GlyΨ(Thz)]GGA-OH)
- In vivo Plants, P (whole plants, expanded Arabidopsis leaves) [1]: P > 75 μM
- ATPase [4]: Inhibits
- In vivo E. coli (E. coli [16]): (→1500 μM)

Compound: CC(NC(=O)CNC(=O)CNC(=O)c1csc(CNC(=O)C(C)NC(=O)CNC(=O)C(N)CCC(N)=O)n1)C(=O)O (stereo not shown) [Peptide 5] (H-QGA[GlyΨ(Thz)]GGA-OH; configuration not given here)
- Fitted parameters (for Equation 1) a [4]: 0.89 ± 0.03
- Fitted parameters (for Equation 1) b [4]: 0.041 ± 0.004
- Fitted parameters (for Equation 1) yo [4]: 0.11 ± 0.02
- Inhibition of wheatgerm topoisomerase I [7]: inhibited both enzymes at similar concentrations
- Inhibition of relaxation reaction at saturation [8]: totally inhibit
- concentration at which the relaxation reaction is inhibited (DNA gyrase A2B2): 40 µM
- Inhibition of DNA-dependent ATP hydrolysis at saturation [12]: totally inhibit
- Inhibition of human topoisomerase I (Human topoisomerase I): inhibited both enzymes at similar concentrations
- Inhibition of supercoiling reaction at saturation [14]: totally inhibit
- inhibition of DNA-dependent ATPase of W751R mutant A2B2 [15]: Little or no inhibition
